The record followed here is publication PMC4336329 (PLoS ONE, 2015).

About 14,000 (4.5%) of roughly 310,000 compounds showed an effect of 50% or more. The effect is printed as a negative number. This is one part of the list.
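Note: peak tail current of the secondary pulse compared with the same well before compound.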

The target of this experiment is human ether-à-go-go-related gene (hERG) potassium channel (human, UniProt Q12809). As to the kind of experiment: primary screen, population patch clamp on CHO cells stably expressing hERG.
human ether-à-go-go-related gene (hERG) potassium channel, sequence (Q12809 whole entry, looked up): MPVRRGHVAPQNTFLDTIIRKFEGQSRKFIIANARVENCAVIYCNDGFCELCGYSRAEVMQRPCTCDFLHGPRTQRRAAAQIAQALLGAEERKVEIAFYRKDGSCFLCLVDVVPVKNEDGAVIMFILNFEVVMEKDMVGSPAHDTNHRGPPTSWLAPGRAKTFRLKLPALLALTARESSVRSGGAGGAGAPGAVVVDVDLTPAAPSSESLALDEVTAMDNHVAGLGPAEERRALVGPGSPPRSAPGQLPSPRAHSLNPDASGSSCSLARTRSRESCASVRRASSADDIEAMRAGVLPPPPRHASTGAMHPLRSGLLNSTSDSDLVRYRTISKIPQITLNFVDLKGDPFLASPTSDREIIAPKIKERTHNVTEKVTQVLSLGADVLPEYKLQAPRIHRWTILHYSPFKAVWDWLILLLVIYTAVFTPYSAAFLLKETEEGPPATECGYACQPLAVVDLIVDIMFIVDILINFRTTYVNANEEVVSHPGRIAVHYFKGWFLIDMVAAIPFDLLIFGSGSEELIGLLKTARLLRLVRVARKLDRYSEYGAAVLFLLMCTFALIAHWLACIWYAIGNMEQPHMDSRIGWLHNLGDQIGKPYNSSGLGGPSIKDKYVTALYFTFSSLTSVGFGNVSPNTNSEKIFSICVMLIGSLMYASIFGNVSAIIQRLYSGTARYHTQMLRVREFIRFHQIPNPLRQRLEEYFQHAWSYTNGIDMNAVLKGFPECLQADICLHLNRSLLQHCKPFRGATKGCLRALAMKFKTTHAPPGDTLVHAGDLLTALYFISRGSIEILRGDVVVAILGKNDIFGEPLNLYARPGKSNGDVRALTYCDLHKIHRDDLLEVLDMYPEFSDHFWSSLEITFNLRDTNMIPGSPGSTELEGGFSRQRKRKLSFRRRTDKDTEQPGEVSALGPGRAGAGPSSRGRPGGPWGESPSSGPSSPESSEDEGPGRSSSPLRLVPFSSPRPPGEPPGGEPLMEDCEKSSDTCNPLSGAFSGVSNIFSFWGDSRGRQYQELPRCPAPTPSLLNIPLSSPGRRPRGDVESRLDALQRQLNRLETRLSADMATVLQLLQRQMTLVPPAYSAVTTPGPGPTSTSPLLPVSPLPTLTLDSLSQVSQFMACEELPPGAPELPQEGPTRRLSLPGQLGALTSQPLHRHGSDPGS
With `NS(=O)(=O)c1ccc(NC(=O)c2ccc(CNS(=O)(=O)c3cc(C(F)(F)F)ccc3Cl)cc2)cc1`, the “hERG current change (%, negative = inhibition) at 10uM” value is on record as 14.1%.
`O=C(NC1CCCCC1)C1Cc2ccccc2CN1S(=O)(=O)c1ccc(F)cc1` (stereo not shown): the “hERG current change (%, negative = inhibition) at 10uM” value is on record as -21%.
The same measure for `CC1CCN(C(=O)Cn2ncc3c4ccccc4n(C)c3c2=O)CC1`: -3.92%; for `CC(=O)N/C(=C\c1ccc(C)cc1)C(=O)O`: 5.32%; for `COc1ccc(/C(C)=N/NC(=S)NCCc2ccccc2)c(O)c1`: 18.9%.
In the case of `O=C(/C=C/c1ccc([N+](=O)[O-])cc1)NCc1ccc2c(c1)OCO2`, the “hERG current change (%, negative = inhibition) at 10uM” value is 10.7%.
`NNC(=O)Cc1cn(-c2ncc(C(F)(F)F)cc2Cl)c2ccccc12`: the “hERG current change (%, negative = inhibition) at 10uM” value is -23.1%.
The figure for `C/C(=N\NC(=O)c1cccc(S(=O)(=O)Nc2ccccc2Cl)c1)c1ccco1` is -8.49%.
Consider `O=c1ccc(Cl)n[nH]1`, for which the “hERG current change (%, negative = inhibition) at 10uM” value is 18.1%.
`CC(=O)N1CCC(CCCC2CCN(C(C)=O)CC2)CC1`: the “hERG current change (%, negative = inhibition) at 10uM” value was found to be 5.66%.
As to `COc1ccc(C(C(=O)NC2CCCC2)N(CCO)C(=O)Cn2nnc(-c3ccc(C)o3)n2)cc1` (stereo not shown), the “hERG current change (%, negative = inhibition) at 10uM” value is 7.13%.
The figure for `CCNC(=O)c1ccccc1SCC(=O)Nc1ccc(F)cc1` is -1.03%; for `COc1ccc(C(CNC(=O)Nc2ccccc2)N2CCN(C)CC2)cc1` (stereo not shown) it is -12.8%.
Turning to `CCCn1nnnc1SCC(=O)N1CCCCC1`, the “hERG current change (%, negative = inhibition) at 10uM” value was found to be 18.7%.
Regarding `O=C(COC(=O)c1ccccc1O)Nc1cccc(S(=O)(=O)NC2=NCCCCC2)c1`, the “hERG current change (%, negative = inhibition) at 10uM” value is reported as -2.03%.
`CCOc1ccc(NC(=S)NC(=O)c2ccco2)cc1`: the “hERG current change (%, negative = inhibition) at 10uM” value came to 13.6%.
In the case of `COc1ccc(N2C(=O)CCC2=O)c(OC)c1`, the “hERG current change (%, negative = inhibition) at 10uM” value is recorded as 20.7%.
The figure for `CSc1ccc(CCNC(=O)C2CCCN(c3nn4c(=O)cc(C)nc4s3)C2)cc1` (stereo not shown) is -35.1%.
As for `COc1ccccc1N1CCN(C(=O)CSc2nc3ccccc3c(=O)n2CC2CCCO2)CC1` (stereo not shown), the “hERG current change (%, negative = inhibition) at 10uM” value was -67.6%.
Regarding `CCOc1nc(N2CCOCC2)nc(N2CCOCC2)n1`, the “hERG current change (%, negative = inhibition) at 10uM” value is reported as 55.2%.
The figure for `CCCn1nnnc1NC(=O)COc1ccc(Cl)cc1C` is -0.704%; for `CCOC(=O)N1CCN(C(=O)CCN2C(=O)COc3ccccc32)CC1` it is 0.87%.
Regarding `Cc1cc(C)nc(Nc2ccc(C)c([N+](=O)[O-])c2)n1`, the “hERG current change (%, negative = inhibition) at 10uM” value is 22.2%.
For `CN1OC(COC(=O)c2ccc(Cl)cc2Cl)CC1c1ccccc1` (stereo not shown), the “hERG current change (%, negative = inhibition) at 10uM” value was determined as 9.07%.
The same measure for `COc1ccc(N2C(=O)C(CC(=O)Nc3ccccc3)N(Cc3cccs3)C2=O)cc1` (stereo not shown): -4.12%; for `CC(C)(C)OC(=O)NCCCCCO`: 6.77%; for `O=S(=O)(c1ccc(N2CCN(Cc3ccccc3)CC2)nc1)N1CCCC1`: -14.8%.
The same measure for `CN(C)CCCNC(=O)c1ccc(Oc2ccccc2)cc1.Cl`: 22.6%; for `Cc1cc(OCCCCn2ccnc2)cc(C)c1Cl.Cl`: -31%.
The figure for `CC1=CC(=C(C#N)C#N)C=C(C)N1Cc1ccccc1` is 12.3%.
For the compound `COc1ccc(-c2nc(CS(=O)CC(=O)NC3CCCC(C)C3C)c(C)o2)cc1OC` (stereo not shown), the “hERG current change (%, negative = inhibition) at 10uM” value is 7.15%.
Take `CN(Cc1nccn1C)C(=O)c1cc(COc2cccc(C(F)(F)F)c2)on1`: the “hERG current change (%, negative = inhibition) at 10uM” value is -13.8%.
The figure for `CN(C)C(=O)C#Cc1ccccc1` is 6.5%; for `CC1CCC(C(=O)NC(C(=O)NCc2cccnc2)C(C)C)CC1` (stereo not shown) it is -4.92%.
The figure for `CCOC(=O)N1CCN(c2nc3ccccc3nc2C(C#N)S(=O)(=O)c2ccc(C)cc2)CC1` (stereo not shown) is -2.3%; for `O=C(O)c1oc2ccccc2c1CSCc1ccccc1` it is 0.44%; for `CCC(C(N)=NCCc1ccc(OC)c(OC)c1)c1ccccc1.Cl` (stereo not shown) it is -6.24%.
`CC(=O)/C=C/c1ccccc1O`: the “hERG current change (%, negative = inhibition) at 10uM” value turned out to be 13.7%.
The same measure for `O=C1N/C(=C/c2ccc(N3CCOCC3)o2)C(=O)N1c1ccccc1`: -10%; for `COC(=O)[C@H](CCSC)NC(=O)NCc1ccc(S(N)(=O)=O)cc1`: 8.26%.
The figure for `O=C(Nc1ccc(-c2ccco2)cc1)C1CCCN(Cc2ccc(CO)o2)C1` (stereo not shown) is -15.5%.
Consider `CC(=O)C1=C(C)NC(=O)NC1c1cccc([N+](=O)[O-])c1O` (stereo not shown), for which the “hERG current change (%, negative = inhibition) at 10uM” value is listed as 54.7%.
`CC1CCCCC1NC(=O)C1CCC(CNc2c(N3CCCCC3)c(=O)c2=O)CC1` (stereo not shown): the “hERG current change (%, negative = inhibition) at 10uM” value was 10%.
For the compound `CCOC(=O)C1CCN(C(=O)c2cc(C)n(C(C)(C)C)n2)CC1`, the “hERG current change (%, negative = inhibition) at 10uM” value came to 9.19%.
Regarding `CCC1CCCCN1S(=O)(=O)c1ccc(S(=O)(=O)N2CCN(S(=O)(=O)CC)CC2)cc1` (stereo not shown), the “hERG current change (%, negative = inhibition) at 10uM” value is -10.7%.
The same measure for `C/C(=N\NC(=O)C1CCCC1)c1ccc(Cl)cc1`: 6.21%.
The figure for `COCCCNC(=S)N1CCN(c2nc(-c3ccc(F)cc3)cs2)CC1` is -0.949%.
`COC(=O)C1=C(C(=O)OC)[C@@H]2N(C)c3ccccc3[C@@]23C[C@@H](CO)N=C3N1`: the “hERG current change (%, negative = inhibition) at 10uM” value is given as 15%.
The same measure for `CCOc1ccc(NC(=O)CN(C)CC(=O)Nc2ccccc2SC)cc1OCC`: -9.63%; for `Cc1cc(NC(=O)CCCSc2nc(-c3ccco3)cc(C(F)(F)F)n2)n(-c2ccccc2)n1`: -0.233%.
With `Cc1ccccc1OCCN=Cc1c(O)n(C)c(=O)n(C)c1=O`, the “hERG current change (%, negative = inhibition) at 10uM” value was -3.36%.
Take `CC(=O)c1ccc(NC2=NCCCS2)cc1`: the “hERG current change (%, negative = inhibition) at 10uM” value is 13.3%.
The figure for `CCc1nnc(NC(=O)Cc2ccc(S(=O)(=O)N3CCCCC3)cc2)s1` is 3.63%; for `Cc1ccccc1N(CC(=O)O)S(C)(=O)=O` it is 14.6%; for `COc1ccc(C)cc1NC(=O)C(c1ccccc1)N1CCNC(=O)C1` (stereo not shown) it is -5.31%.
As for `CCCCCCCc1n[nH]c(=S)n1Cc1ccccc1`, the “hERG current change (%, negative = inhibition) at 10uM” value was determined as 5.44%.
Consider `CCOC(=O)C1CCCN(S(=O)(=O)c2cc(Br)cc3c2N(C(C)=O)CC3)C1` (stereo not shown), for which the “hERG current change (%, negative = inhibition) at 10uM” value is -11.8%.
The same measure for `Cc1cc(Cl)ccc1NC(=O)c1ccc2c(c1)OCO2`: 10.7%; for `COc1ccc(/C(O)=C2/C(=O)C(=O)N(CCCC(=O)O)C2c2ccc(OC)cc2)cc1` (stereo not shown): 11.7%.
With `CCc1cccc(NS(=O)(=O)c2cccc3cccnc23)c1`, the “hERG current change (%, negative = inhibition) at 10uM” value is listed as 7.55%.
The figure for `CN(C(=O)CC1C(=O)NCCN1Cc1ccc(F)cc1)C1CCOCC1` (stereo not shown) is 5.65%.
The same measure for `Cc1ccc(NP(=O)(Nc2ccc(C)cc2)Nc2ccc(C)cc2)cc1`: 7.58%; for `ONC(=Nc1ccccc1)c1ccc(Cl)cc1`: -2.91%; for `Cc1ccc(OCC(=O)O/N=C(\N)c2ccncc2)cc1C`: -2.3%.
The figure for `COc1ccc(CCn2c(N)cc(=O)[nH]c2=S)cc1OC` is -3.39%; for `O=C(O)c1ccc(N=NN2CCCCC2)cc1` it is 9.38%.
With `CC(C)c1nnc(NC(=O)CSc2nnc(-c3ccco3)o2)s1`, the “hERG current change (%, negative = inhibition) at 10uM” value turned out to be 5.38%.
The figure for `COc1ccccc1CCNS(=O)(=O)c1cc2c3c(c1)CCN3C(=O)CC2` is 4.12%; for `CNC(=S)N(CCN(C)C)Cc1cc2cc3c(cc2[nH]c1=O)OCO3` it is 0.993%.
The figure for `Cc1cccnc1NC(=O)C(C)Oc1ccccc1` (stereo not shown) is 13.5%; for `C=CCN1C(=O)c2ccc(C(=O)N(C)Cc3ccc(C)o3)cc2C1=O` it is 3.81%.
The same measure for `CNc1nc(Cl)nc(NC(C)(C)C)n1`: 0.796%; for `COC(=O)c1ccc(N(CC(=O)NC2CCCC2)C(=O)CNC(=O)c2ccco2)cc1`: -11.2%; for `CCc1cccc(NC(=O)C2CCN(S(=O)(=O)c3ccc4[nH]c(=O)ccc4c3)CC2)c1`: 3.41%.
On to `CC(C)(CC(=O)O)CC(=O)NCc1c(Cl)cccc1Sc1ccc(Cl)cc1`, for which the “hERG current change (%, negative = inhibition) at 10uM” value is -2.93%.
With `Cc1cccc(-n2c(O)c(C=Nc3c(C)n(C)n(-c4ccccc4)c3=O)c3ccccc3c2=O)n1`, the “hERG current change (%, negative = inhibition) at 10uM” value is listed as -8.58%.
The figure for `COc1cc(NC(=O)CSc2ccccc2)c(C(=O)O)cc1OC` is 26.2%.
The figure for `Cc1nn(C(C)C(=O)N2CCN(c3ccccn3)CC2)c(=O)c2cc3occc3n12` (stereo not shown) is -7.58%.
As for `COc1ccc(S(=O)(=O)NCc2cc(=O)n(C)c(=O)n2C)cc1F`, the “hERG current change (%, negative = inhibition) at 10uM” value is listed as 7.64%.
The same measure for `CCC(C)N(C(=O)COC(=O)c1nc2nc(C)cc(C)n2n1)C1CCS(=O)(=O)C1` (stereo not shown): 9.86%.
As to `O=C(c1cc(COc2ccc3ncccc3c2)on1)N1CCC(O)CC1`, the “hERG current change (%, negative = inhibition) at 10uM” value was found to be 11.4%.
The same measure for `COc1cc(NC(=O)CSc2nnc3ccc(-c4ccncc4)nn23)cc(OC)c1`: -33.2%; for `COc1cc(-c2nc(C)c(C(C)=O)n2O)ccc1OCC(=O)Nc1ccc(F)cc1`: -10.9%; for `Cc1ccc(-n2c(O)c(C=NC3CCCCC3N)c(=O)[nH]c2=O)cc1C` (stereo not shown): -1.25%.
Take `CCc1ccc(OCC(=O)N2c3ccccc3CCc3ccccc32)cc1`: the “hERG current change (%, negative = inhibition) at 10uM” value is on record as -12.6%.
For the compound `CCOCCCN1C(=O)C(O)=C(C(C)=O)C1c1cccs1` (stereo not shown), the “hERG current change (%, negative = inhibition) at 10uM” value is listed as 3.04%.
The figure for `CC1(C)Cc2nc3[nH]c(=S)n(-c4ccccc4)c(=O)c3cc2CO1` is 20.3%; for `CC(C)(C)c1ccc(S(=O)(=O)Nc2cccc(C3OCCCO3)c2)cc1` it is 1.79%.
The figure for `COc1ccccc1Oc1ccc(Oc2ccccc2OC)cc1` is 27.7%; for `CC(C)n1c(=S)[nH]c2ccccc21` it is 7.82%; for `CCCCCCCNC(=O)C1(CC2CC(c3ccc(Cl)cc3)=NO2)CCN(C(=O)Cc2ccc(F)cc2)CC1` (stereo not shown) it is -11%.
